Laboratory results as given in paper PMC7819943, “Rice protein-binding microarrays: a tool to detect cis-acting elements near promoter regions in rice”.
This is one part of the list.

These sequences were tested against T1, OsWOX13 (Oryza sativa, UniProt Q5QMM3 1-267) (assay: protein-binding microarray (RPBM); PBS, 2% BSA, 51.3 ng/ul salmon testes DNA, 50 uM zinc acetate, 200 nM TF, 25 C, 1 h; high values mean tight binding). Details: protein: recombinant; tags: N-terminal polyhistidine and DsRed monomer fusion (pET32a); label: CyDye5-dUTP incorporated in the synthesized complementary strand; 3' TTTTT single-stranded linker to array surface; dsDNA, one strand shown.
T1 sequence: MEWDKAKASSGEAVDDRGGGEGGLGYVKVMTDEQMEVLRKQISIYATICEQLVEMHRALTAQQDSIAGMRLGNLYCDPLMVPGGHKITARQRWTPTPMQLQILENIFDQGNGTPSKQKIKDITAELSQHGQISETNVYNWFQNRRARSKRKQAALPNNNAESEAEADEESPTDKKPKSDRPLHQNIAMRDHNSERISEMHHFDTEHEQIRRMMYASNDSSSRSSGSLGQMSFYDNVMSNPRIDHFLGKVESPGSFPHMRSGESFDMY
Summary of the method: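 The binding signal is fluorescence intensity per array feature (arbitrary units). Readings came from an Axon 4000B scanner after a washed, 2% BSA-blocked, double-stranded custom Agilent array had been incubated for 1 h at 25 °C with 200 nM protein and 50 µM zinc acetate. The protein was a Ni–NTA-purified transcription factor fused N-terminally to polyhistidine and DsRed, expressed in E. coli BL21-CodonPlus.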

Sequence | binding signal
AAGATAACTAATTACATAGATTGTATGTAAATTACGAGACCGGAGTCACCTAGTGCAG | 33200 fluorescence intensity (a.u.)
AATGATCTCACTTGATTGATTTAAGTATATGGAAGTTATACGGAGTCACCTAGTGCAG | 32000 fluorescence intensity (a.u.)
AGGCAAATTATGGAGATTAACCATAGGCTACAGGCCCTTTCGGAGTCACCTAGTGCAG | 11100 fluorescence intensity (a.u.)
ACTATCAAATTGAGTAGTATTCAATTTGAACTATTGTGGGCGGAGTCACCTAGTGCAG | 14200 fluorescence intensity (a.u.)
AAATAATTTGTTGTTTCGAAAATTTACAAATCTAATCGCCCGGAGTCACCTAGTGCAG | 28200 fluorescence intensity (a.u.)
TAAGTTAAATAACTATTAATTGTGGCCTGTGCTCAGCCTTCGGAGTCACCTAGTGCAG | 9070 fluorescence intensity (a.u.)
TAGAATTGATTGTGCGAGAGAGATAATTGAACACAGGAATCGGAGTCACCTAGTGCAG | 47500 fluorescence intensity (a.u.)
ATTGATTTGATTGTATTCATAATCATACAATTATCTTAGCCGGAGTCACCTAGTGCAG | 65200 fluorescence intensity (a.u.)
GTTTAATGATAAATCTAGTAATATTAATTTTACATGATTGCGGAGTCACCTAGTGCAG | 25600 fluorescence intensity (a.u.)
AATGATTTGGATGTACCTTTGCTATATGTAATGCTATTTTCGGAGTCACCTAGTGCAG | 28900 fluorescence intensity (a.u.)
TAAATTGATCAAATTGCCATTTGGAGTGCAGTGACGGGCTCGGAGTCACCTAGTGCAG | 54900 fluorescence intensity (a.u.)
CTGATTGGTTAGTAAGAGAATGTTGGTGGTGAAGTTGTTACGGAGTCACCTAGTGCAG | 29900 fluorescence intensity (a.u.)
TCCATAAACTAAATTAAGGTTGGGTTTTCTGATGGCATAACGGAGTCACCTAGTGCAG | 9500 ± 697 fluorescence intensity (a.u.)
CATGACAATTAATTAGCATCTCTTCTCTTCTAAATTATTACGGAGTCACCTAGTGCAG | 27800 fluorescence intensity (a.u.)
GTTTGATTGCTTAATTAATTTCCAAATGCGCAATCATGCACGGAGTCACCTAGTGCAG | 64800 fluorescence intensity (a.u.)
GATAATTTAGAATTTAAACTTTTACATACATATTCTTAATCGGAGTCACCTAGTGCAG | 6460 fluorescence intensity (a.u.)
ATATTATTAATCATCATATAATGGTGTTATGTGAAGTGTGCGGAGTCACCTAGTGCAG | 3420 fluorescence intensity (a.u.)
CTCAAATTTATAGTTTTGCGATAGTTTGGTCAATGTTTATCGGAGTCACCTAGTGCAG | 6310 fluorescence intensity (a.u.)
ACGGACTAATTAAATAAGCATAAAGAACTTAAGTTGATCGCGGAGTCACCTAGTGCAG | 18300 fluorescence intensity (a.u.)
AAAACTAATGAGACTAAATAATTAGTGCAGAAAATTTTGACGGAGTCACCTAGTGCAG | 7520 fluorescence intensity (a.u.)
CAGCGGATTAATTACTACCACTACCACAAATAATTCATTACGGAGTCACCTAGTGCAG | 7010 fluorescence intensity (a.u.)

Sequence | binding signal
ATAGACAAATTGTTTCTAAGTTTAACTATGTTTATAGACACGGAGTCACCTAGTGCAG | 9020 fluorescence intensity (a.u.)
AAAACAGTCATTAGCAAATTATCCTCCTCTTATTAGGACTCGGAGTCACCTAGTGCAG | 16500 fluorescence intensity (a.u.)
AACTGACAGGTGGGGTCACGGGGCAACACCAATTCGTGGGCGGAGTCACCTAGTGCAG | 5620 fluorescence intensity (a.u.)
GTTTTGAATAATTAATATTTAATTATTTATGAGCTAATGGCGGAGTCACCTAGTGCAG | 34400 fluorescence intensity (a.u.)
CACGACCGACCGTTATCATCAATCATCATCGATCCGTTGCCGGAGTCACCTAGTGCAG | 11600 fluorescence intensity (a.u.)
GTCCAGCTTAAGCTTAATTATCACTCAAAACGGGACAGGGCGGAGTCACCTAGTGCAG | 3420 fluorescence intensity (a.u.)
TCAATTGAATGTTGCGTGAGTGATGATGCCCTTGTGGGACCGGAGTCACCTAGTGCAG | 3860 fluorescence intensity (a.u.)
GTGATTGATGAAGTCACCACAGACGCCTCGCTGTCGACGGCGGAGTCACCTAGTGCAG | 26000 fluorescence intensity (a.u.)
TTCAGTTATGTAATTATTGTACCTTTGAAACTGCTAGCCACGGAGTCACCTAGTGCAG | 4170 fluorescence intensity (a.u.)
TAATTGATTAGCAGTAAGGTATTGGTTGTCCAATCTTGCTCGGAGTCACCTAGTGCAG | 58400 fluorescence intensity (a.u.)
TTGAATTGCCATTACAAGCAGAAACTGGGTAGCCCAGCAGCGGAGTCACCTAGTGCAG | 3260 fluorescence intensity (a.u.)
CTCTTAATCACTATAATATTAAAATATGGTTGCACGAGGACGGAGTCACCTAGTGCAG | 5840 fluorescence intensity (a.u.)
CAATCTTGATTGTTGGGCAGTTGGGCTTAGTTGATGTATGCGGAGTCACCTAGTGCAG | 33100 fluorescence intensity (a.u.)
AATAAAATAATCAAACGTTACGTGAAAATTTAACGATATCCGGAGTCACCTAGTGCAG | 3410 fluorescence intensity (a.u.)
CCAAATGATAGCACCATCATTCTCTGTCAGTGTGGACCTTCGGAGTCACCTAGTGCAG | 6390 fluorescence intensity (a.u.)
GTGTATGATAGATTGATGTGATAGAAAAGGACTGAAGTTTCGGAGTCACCTAGTGCAG | 24600 fluorescence intensity (a.u.)
AATTTTAATTAATCTCGTATTGGATTCTTATATGGACTCTCGGAGTCACCTAGTGCAG | 9780 fluorescence intensity (a.u.)
GGAAGAATTGATTGATTAAAGATATATATCGAATATCTGCCGGAGTCACCTAGTGCAG | 40400 fluorescence intensity (a.u.)
TCGATCTCCATTAATTATCCAACGACGACACGACGACGCACGGAGTCACCTAGTGCAG | 5720 fluorescence intensity (a.u.)
ACAATAATAAAATTAAAATAACATTTACTTGTTGCAATGTCGGAGTCACCTAGTGCAG | 3580 fluorescence intensity (a.u.)
CAGATGAATCAAATTGACCATGGTGGTGGTTGTGGTTGGGCGGAGTCACCTAGTGCAG | 9060 fluorescence intensity (a.u.)
